Experimental data from the supplement of paper PMC10126150.
Sequences with one replicate were seen in a single cluster, so their values are uncertain.

system: ATP; assay: switch fluorescence ratio, 500 uM ATP over buffer (Cy3 cluster intensity, sum of 5 cycles each) (fold (ratio)); higher = stronger signal-on switching upon ATP binding; sequences stand for … in TCGTCGGCAGCGTCAGATGTGTATAAGAGACAGTTTTTTTTTTTTTTTTTTTTTTTTT…TC; conditions: aptamer strand: ATP DNA aptamer (quencher-CACCTGGGGGAGTATTGCGGAGGAAGG + anchor), 100 nM annealed; ATP concentration: 500 uM; one replicate
Summary of the method: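 Clusters with intensities outside 100-1000 RFU were excluded. The remaining Cy3-labelled switching-strand clusters on a modified Illumina MiSeq flow-cell had been annealed to 100 nM quencher-labelled ATP aptamer and imaged in selection buffer, then after 15 min with 500 uM ATP at 22 °C, for five cycles separated by NaOH stripping and re-annealing. The fluorescence ratio, averaged per switch-domain sequence, is each cluster's summed target-cycle Cy3 intensity over its summed buffer-cycle Cy3 intensity.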
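Further: ATP exposure 15 min at 22 °C before imaging.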

Sequence	switch fluorescence ratio
TGTCCGGCCC	1.04
TGTCCGTAGC	2.53
TGTCCTAAGT	0.975
TGTCCTTGCA	1.06
TGTCGAGGTA	1.06
TGTCGCCCCT	1.05
TGTCGCGGCA	1
TGTCGCGT	0.997
TGTCGGTAGG	0.975
TGTCTAAAGT	0.986
TGTCTAATAG	1.03
TGTCTTATAT	1.01
TGTGAAAGAG	0.942
TGTGAAATTT	0.993
TGTGAGTAAA	1.03
TGTGATCAGT	0.97
TGTGATTCTC	1.03
TGTGCAAACA	1
TGTGCAGGGG	1.03
TGTGCATGTG	0.996
TGTGCGAAGA	1
TGTGCGTGAA	1
TGTGCGTGGG	1.01
TGTGCTTAGC	1
TGTGGACCAT	1.03
TGTGGATATG	1.02

Sequence	switch fluorescence ratio
TGTGGCTCTC	1.02
TGTGGGACTC	1.1
TGTGGTGAGC	0.977
TGTGGTTTCG	0.997
TGTGTAAAAA	0.937
TGTGTAACA	0.98
TGTGTAGAAG	0.948
TGTGTCATAT	0.974
TGTGTGTGCG	1.06
TGTGTGTTG	1.07
TGTGTTACAA	1.02
TGTGTTAGCT	0.959
TGTGTTTGA	0.969
TGTGTTTGCC	0.959
TGTTAAATTC	0.994
TGTTAATTTT	1.01
TGTTACATAC	1.49
TGTTACCCCC	1.02
TGTTACCGGC	1.02
TGTTACTAAT	1
TGTTAGATGG	1.01
TGTTAGCCTG	0.995
TGTTAGCGAT	1.04
TGTTAGTTCG	0.973
TGTTATGGAA	1
TGTTCAAACG	0.997

Sequence	switch fluorescence ratio
TGTTCACCGC	1.06
TGTTCACCTG	1.11
TGTTCATCCG	1.33
TGTTCCAAAG	1.05
TGTTCCAGAA	0.966
TGTTCCAGTT	0.948
TGTTCCGTTC	1.02
TGTTCGAACG	1.07
TGTTCGGTT	1
TGTTCGTGGC	1.11
TGTTCGTTGT	1.01
TGTTCTATTG	0.966
TGTTCTCCCA	0.945
TGTTCTGCTG	1.04
TGTTCTGGTC	0.997
TGTTGAGATT	1.05
TGTTGAGGGT	0.982
TGTTGATCGT	0.954
TGTTGGATAC	1.45
TGTTGGATTA	1.12
TGTTGGTTGG	0.969
TGTTGTGAGC	1.01
TGTTTCAGAC	0.956
TGTTTCCAAG	1
TGTTTCGTG	0.957
TGTTTTG	1.02

Sequence	switch fluorescence ratio
TGTTTTGCCC	1.04
TGTTTTTGTC	1.08
TTAAAAGTCA	0.948
TTAAACGAGG	0.985
TTAAACGTTG	0.982
TTAAACTAAT	0.987
TTAAAGCTAG	0.993
TTAAAGGTTG	0.982
TTAAAGTTCC	1.14
TTAAATAAGC	0.999
TTAAATACTG	1.39
TTAAATGTAG	1
TTAACACCTC	1.05
TTAACAGGTA	0.957
TTAACGGAAA	1.08
TTAACGGTCA	1.02
TTAACTATGT	0.99
TTAACTGAAT	1
TTAACTGTTG	1.03
TTAAGATATA	0.924
TTAAGCGTTG	0.953
TTAAGGAGAG	0.993
TTAAGGATAT	1.03
TTAAGGCTA	1.01
TTAAGGCTCT	1
TTAAGGGGC	1.07

Sequence	switch fluorescence ratio
TTAAGTCCCG	1
TTAAGTCTTG	1
TTAAGTGGTA	1
TTAATAACGC	0.982
TTAATAGACC	1.07
TTAATCCCGC	1.07
TTAATCTCT	0.976
TTAATGAAAG	1.02
TTAATGTGCA	0.979
TTACAGACCC	1.14
TTACAGCTCT	1.02
TTACATAGCT	1.01
TTACATAGTC	1.06
TTACATATCG	1.05
TTACATATTC	1.04
TTACATCAGG	1.09
TTACATCGTT	0.992
TTACATGCAT	1.01
TTACATGTGG	1.01
TTACCACCAC	1.28
TTACCCAAGC	1.01
TTACCCGATA	1.01
TTACCG	0.986
TTACCGGAGA	1.07
TTACCGGTTA	0.986
TTACCTTGCG	1.01

Sequence	switch fluorescence ratio
TTACGACCTG	1.02
TTACGAGGTG	1.08
TTACGATAGT	1.01
TTACGCAGTG	1.03
TTACGCTTCG	1.03
TTACGGAACC	1.31
TTACGGCCTG	0.985
TTACGGCGTG	1.02
TTACGGGGAA	1.05
TTACGGTACG	1.03
TTACTAAAAA	1.03
TTACTACCCG	1.11
TTACTACGCC	1.35
TTACTCGTAC	1.27
TTACTGCGTT	0.974
TTACTTTAAT	1.07
TTAGAAAATT	0.991
TTAGAAATCG	0.959
TTAGAATTGG	1.04
TTAGACTATA	1.04
TTAGAGGCAC	1.03
TTAGAGTCGA	0.971
TTAGAGTGTA	1.02
TTAGATATTA	0.989
TTAGCCGGAA	1.03
TTAGCGAACT	1.1

Sequence	switch fluorescence ratio
TTAGCGCCTA	0.986
TTAGCGGGCT	1.07
TTAGCGGTTC	1.06
TTAGCTGATC	0.998
TTAGGCCGCC	0.957
TTAGGCGAT	1.03
TTAGGCGATT	1.06
TTAGGCTTAT	0.951
TTAGGGCCAC	0.992
TTAGGGGCTA	1.04
TTAGGTACAG	1.02
TTAGGTGCAT	1.2
TTAGGTGGA	1.05
TTAGTACAAG	1.05
TTAGTACTA	1.02
TTAGTACTGG	1.02
TTAGTATA	0.955
TTAGTCAGGT	1
TTAGTCCATC	1.01
TTAGTCGGCC	0.995
TTAGTGATAA	1.03
TTAGTTCGCG	1.01
TTAGTTGACT	0.964
TTATAACAAA	1.01
TTATAAGCGC	0.942
TTATAATAGA	1.04

Sequence	switch fluorescence ratio
TTATAATGCA	0.933
TTATACCCCC	1.73
TTATACCTGC	1.02
TTATACTAAA	1.01
TTATAGAATT	1.04
TTATATCAGG	0.969
TTATATGCGT	1.03
TTATATT	0.984
TTATATTCCG	0.988
TTATATTTGG	1.05
TTATATTTT	0.97
TTATCAAGAT	1.05
TTATCAGAGG	1.05
TTATCAGCCT	1.08
TTATCGGTGA	0.978
TTATCTAT	1.04
TTATCTGCAA	2.45
TTATGAAAAA	0.986
TTATGACCAT	1.01
